According to PubChem BioAssay AID686978 (National Center for Advancing Translational Sciences (NCATS), 2013):
Out of some 420,000 compounds screened, about 64,000 (15%) were called active. The shares of active, inactive and inconclusive entries below differ from those in the screen. Calls follow the shape of the dose curve; as a rule, active = well fitted inhibition curve with a large enough effect; inconclusive = small, poorly fitted or top-dose-only effect; inactive = flat fitted curve, though single readings scatter. Potencies of inconclusive entries are left out as doubtful fits.

Assay: qHTS for Inhibitors of human tyrosyl-DNA phosphodiesterase 1 (TDP1): qHTS in cells in absence of CPT; also: nearly all actives have a fitted effect of over 55% in size
Conditions: DT40 Tdp1-/- hTDP1 cells, no CPT, ATP luminescence, 48 h; series mostly up to 46.2 µM
Method in brief: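 Seeded 400 DT40-hTDP1 cells/well (vehicle DMSO, no 20 nM CPT); pinned compounds; ≥48 hr at 37 °C; CellTiter-Glo luminescence as viability measure.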
Potency is read from the fitted curve at half-maximal effect; tags tell the direction and shape of the fitted curve.

SMILES | Potency
CN(C)C(=O)c1sccc1Oc1ccc(F)cc1[N+](=O)[O-] | inactive
COc1ccc(CN(C)c2ccc(-c3nc(C)no3)cc2[N+](=O)[O-])cc1 | active: 8.2 µM
Cc1ccc(NC(=O)CSc2ncc3c(n2)-c2ccccc2N(C)S3(=O)=O)c(Cl)c1 | active: 0.651 µM
COc1ccc(CN(C(=O)c2oc3cc(C)ccc3c2C)C2CCS(=O)(=O)C2)cc1OC (stereo unspecified) | inconclusive [inhibitor, single point]
CCN(CCCNC(=O)CSc1cc(=O)n(C)c2cc(Cl)ccc12)c1ccccc1 | inconclusive [inhibitor, single point]
O=C(COc1ccc(-n2ccnc2)cc1)Nc1cccc(F)c1 | inconclusive [inhibitor, single point]
CCOC(=O)c1c(NC(=O)C2CCCN(S(=O)(=O)c3ccccc3)C2)sc2c1CCCC2 (stereo unspecified) | active: 9.2 µM
CSCCC(NC(=O)c1ccco1)C(=O)NNC(=O)c1n[nH]c(=O)c2ccccc12 (stereo unspecified) | inactive
CCOc1ccc(C(=O)N2CCN(c3ccccn3)CC2)cc1OCC | inconclusive [inhibitor, single point]
Cc1ccccc1C(=O)c1cccn1CC(=O)NC(C)c1ccc2c(c1)OCCO2 (stereo unspecified) | inconclusive [inhibitor, single point]
COc1ccc(C(=O)NCC(=O)OCC(=O)N2CCc3ccccc32)cc1 | inactive
CCOC(=O)c1nc2c(ccc3ccccc32)cc1C | inactive
Clc1ccccc1OCc1nn2c(-c3ccncc3)nnc2s1 | inconclusive [inhibitor, single point]
CCc1ccc(CNC(=O)Cn2nc(C)c3c(C)n(-c4ccc(C)cc4)nc3c2=O)cc1 | inconclusive [inhibitor, partial curve]
O=C(/C=C/c1ccc([N+](=O)[O-])cc1)c1cccs1 | inconclusive [inhibitor, partial curve]
CCc1nc2ccc(C(=O)NCCCn3ccnc3)cn2c1N(C)CCC(C)C | inconclusive [inhibitor, single point]
COCCn1c(=O)c(-c2ccc(F)cc2)nc2cnc(Oc3ccc(OC)cc3)nc21 | inconclusive [inhibitor, single point]
CC(C)CC(=O)NC(=S)Nc1ccc(N2CCN(C(=O)c3cccs3)CC2)cc1 | active: 20.6 µM
COc1ccc(C(=O)N/N=C/c2ccc(OC)c(CN3CCCc4ccccc43)c2)cc1 | inconclusive [inhibitor, single point]
Cc1ccn2c(NC(=O)C(C)(C)Oc3ccc(Cl)cc3)c(-c3cccs3)nc2c1 | active: 18.4 µM
CCCc1nnc(NC(=S)Nc2ccccc2)s1 | active: 3.26 µM
CCOC(=O)N1CCN(C(=O)c2ccc(S(=O)(=O)NCc3ccco3)cc2)CC1 | inconclusive [inhibitor, partial curve]
C=C(C)C1CC=C(C)/C(=N/NC(=O)COc2ccccc2C)C1 (stereo unspecified) | inconclusive [inhibitor, single point]

SMILES | Potency
O=C(NCCN1CCCC1)c1ccc2c(=O)n(CCc3ccccc3)c(=O)[nH]c2c1 | active: 29.1 µM
Cc1cc(C)n(CCN(C)C(=O)CCc2nnc(CCC3CCCCC3)o2)n1 | inconclusive [inhibitor, single point]
CCN(CC)c1nn2c(=O)c(C(=O)NCc3cccc(OC)c3OC)cnc2s1 | inconclusive [inhibitor, single point]
CCn1c(CSCc2ccccc2)n[nH]c1=S | inconclusive [inhibitor, single point]
CC(=O)c1ccc(OCCCC(=O)Nc2ccc(C)c(S(=O)(=O)N3CCCCC3)c2)cc1 | inconclusive [inhibitor, single point]
CCc1cc(=O)n2c([nH]c3ccccc32)c1C#N | inconclusive [inhibitor, single point]
COc1ccccc1C(=O)Nc1ccc2nc3n(c(=O)c2c1)CCCC3 | inactive
CC1CN(Cc2ccccc2Cl)CC(C)O1 (stereo unspecified) | inactive
CCCNC(C)(C)COC(=O)c1ccccc1 | inactive
Cc1onc(-c2c(F)cccc2Cl)c1C(=O)OCC(=O)Nc1cccc(S(=O)(=O)N(C)C)c1 | inconclusive [inhibitor, single point]
CC1=NN(Cc2cc(C(C)(C)C)c(O)c(C(C)(C)C)c2)C(=O)C1 | inconclusive [inhibitor, single point]
CC1N=C2c3ccccc3N=C(SCC(=O)NCc3ccc(Cl)cc3)N2C1=O (stereo unspecified) | inconclusive [inhibitor, single point]
Cc1[nH]n(-c2ccccc2)c(=O)c1C=NC1CCCCCC1 | inconclusive [inhibitor, partial curve, poor fit]
Cc1cccn2c(CN(C)C3CCOC3)c(C(=O)N3CCCCC3)nc12 (stereo unspecified) | inactive
CCCN(CCC)c1nc(NC2CCN(C(=O)OCC)CC2)nc(OC)n1 | active: 20.6 µM
O=C(CSc1nc2c([nH]c3ccccc32)c(=O)n1-c1ccccc1)NCC1CCCO1 (stereo unspecified) | inactive
Cc1cc2cc(CN(Cc3ccc4c(c3)OCO4)C(=O)c3ccco3)c(=O)[nH]c2cc1C | inconclusive [inhibitor, single point]
CC1(C(=O)Nc2ccccc2F)CCN1C(=O)Cc1ccc(-c2ccccc2)cc1 (stereo unspecified) | active: 14.6 µM
CC1=C(C(=O)N2CCCC(N3CCN(c4ccccc4F)CC3)C2)OCCO1 (stereo unspecified) | inactive
O=C(N/N=C/c1cccc([N+](=O)[O-])c1)c1cc(-c2ccc3c4c(cccc24)CC3)n[nH]1 | inconclusive [inhibitor, single point]
COc1ccc(CN2CCNC(=O)C2CC(=O)NCCc2nc(C)c(C)s2)c(OC)c1 (stereo unspecified) | inactive
CC(NC(=O)C1CC1)c1ccc(-c2ccccc2)cc1 (stereo unspecified) | inconclusive [inhibitor, partial curve, poor fit]
O=C(c1ccccc1C(=O)N1CCN(c2ccccc2F)CC1)N1CCN(c2ccccc2F)CC1 | inconclusive [inhibitor, single point]
